# Reference: PMC9911399, “Two distinct binding modes provide the RNA-binding protein RbFox with extraordinary sequence specificity”
# Residue numbers refer to the chain shown, from its start. This is one part of the list.
# T1: RBFOX1 RRM (Homo sapiens, UniProt Q9NWB1 109-208)
# T1 sequence: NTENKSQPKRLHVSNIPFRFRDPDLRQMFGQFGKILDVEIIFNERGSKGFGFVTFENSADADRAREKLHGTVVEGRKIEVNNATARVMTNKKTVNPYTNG
# B1: ACCAUCG (DNA:RNA)
# RNA: GGGAGACCGGAAUUCAGAUUGUCCACCAUCGUUAAAUCCCGUCGUAGCCACCA
# DNA 1: CAATCTGAATTCCGGTCTCCC
# DNA 2: TGGTGGCTACGACGGGATT
# B2: UUAGGAC (DNA:RNA)
# RNA: GGGAGACCGGAAUUCAGAUUGUCCUUAGGACUUAAAUCCCGUCGUAGCCACCA
# DNA 1: CAATCTGAATTCCGGTCTCCC
# DNA 2: TGGTGGCTACGACGGGATT
# B3: CCGGGAC (DNA:RNA)
# RNA: B2 RNA with U25C, U26C, A27G
# DNA 1: CAATCTGAATTCCGGTCTCCC
# DNA 2: TGGTGGCTACGACGGGATT
# B4: ACAUCCG (DNA:RNA)
# RNA: B1 RNA with C27A, A28U, U29C
# DNA 1: CAATCTGAATTCCGGTCTCCC
# DNA 2: TGGTGGCTACGACGGGATT
# B5: AUGCUCU (DNA:RNA)
# RNA: B1 RNA with C26U, C27G, A28C, G31U
# DNA 1: CAATCTGAATTCCGGTCTCCC
# DNA 2: TGGTGGCTACGACGGGATT
# B6: CCUCUUA (DNA:RNA)
# RNA: B1 RNA with A25C, C27U, A28C, C30U, G31A
# DNA 1: CAATCTGAATTCCGGTCTCCC
# DNA 2: TGGTGGCTACGACGGGATT
# B7: GCUCCAA (DNA:RNA)
# RNA: B1 RNA with A25G, C27U, A28C, U29C, C30A, G31A
# DNA 1: CAATCTGAATTCCGGTCTCCC
# DNA 2: TGGTGGCTACGACGGGATT
# B8: GUAAGCC (DNA:RNA)
# RNA: B2 RNA with U25G, G28A, A30C
# DNA 1: CAATCTGAATTCCGGTCTCCC
# DNA 2: TGGTGGCTACGACGGGATT
# B9: ACCCCGC (DNA:RNA)
# RNA: B1 RNA with A28C, U29C, C30G, G31C
# DNA 1: CAATCTGAATTCCGGTCTCCC
# DNA 2: TGGTGGCTACGACGGGATT
# B10: CUAAGUA (DNA:RNA)
# RNA: B2 RNA with U25C, G28A, A30U, C31A
# DNA 1: CAATCTGAATTCCGGTCTCCC
# DNA 2: TGGTGGCTACGACGGGATT
# B11: CUGUCCC (DNA:RNA)
# RNA: B2 RNA with U25C, A27G, G28U, G29C, A30C
# DNA 1: CAATCTGAATTCCGGTCTCCC
# DNA 2: TGGTGGCTACGACGGGATT
# B12: AUUUCAC (DNA:RNA)
# RNA: B2 RNA with U25A, A27U, G28U, G29C
# DNA 1: CAATCTGAATTCCGGTCTCCC
# DNA 2: TGGTGGCTACGACGGGATT
# B13: CUCGGCG (DNA:RNA)
# RNA: B1 RNA with A25C, C26U, A28G, U29G
# DNA 1: CAATCTGAATTCCGGTCTCCC
# DNA 2: TGGTGGCTACGACGGGATT
# B14: UAGCUGG (DNA:RNA)
# RNA: B1 RNA with A25U, C26A, C27G, A28C, C30G
# DNA 1: CAATCTGAATTCCGGTCTCCC
# DNA 2: TGGTGGCTACGACGGGATT
# B15: AUCGGAA (DNA:RNA)
# RNA: B2 RNA with U25A, A27C, C31A
# DNA 1: CAATCTGAATTCCGGTCTCCC
# DNA 2: TGGTGGCTACGACGGGATT
# B16: UGGGAGA (DNA:RNA)
# RNA: B2 RNA with U26G, A27G, G29A, A30G, C31A
# DNA 1: CAATCTGAATTCCGGTCTCCC
# DNA 2: TGGTGGCTACGACGGGATT
# B17: CGGUUUG (DNA:RNA)
# RNA: B1 RNA with A25C, C26G, C27G, A28U, C30U
# DNA 1: CAATCTGAATTCCGGTCTCCC
# DNA 2: TGGTGGCTACGACGGGATT
# B18: CGCGAUG (DNA:RNA)
# RNA: B1 RNA with A25C, C26G, A28G, U29A, C30U
# DNA 1: CAATCTGAATTCCGGTCTCCC
# DNA 2: TGGTGGCTACGACGGGATT
# B19: AGCUGUC (DNA:RNA)
# RNA: B1 RNA with C26G, A28U, U29G, C30U, G31C
# DNA 1: CAATCTGAATTCCGGTCTCCC
# DNA 2: TGGTGGCTACGACGGGATT
# B20: UCUGAAU (DNA:RNA)
# RNA: B2 RNA with U26C, A27U, G29A, C31U
# DNA 1: CAATCTGAATTCCGGTCTCCC
# DNA 2: TGGTGGCTACGACGGGATT
# B21: CGAUAAU (DNA:RNA)
# RNA: B2 RNA with U25C, U26G, G28U, G29A, C31U
# DNA 1: CAATCTGAATTCCGGTCTCCC
# DNA 2: TGGTGGCTACGACGGGATT
# B22: AAGGAUG (DNA:RNA)
# RNA: B1 RNA with C26A, C27G, A28G, U29A, C30U
# DNA 1: CAATCTGAATTCCGGTCTCCC
# DNA 2: TGGTGGCTACGACGGGATT
# B23: GUCAUUG (DNA:RNA)
# RNA: B1 RNA with A25G, C26U, C30U
# DNA 1: CAATCTGAATTCCGGTCTCCC
# DNA 2: TGGTGGCTACGACGGGATT
# B24: AAGUCAA (DNA:RNA)
# RNA: B1 RNA with C26A, C27G, A28U, U29C, C30A, G31A
# DNA 1: CAATCTGAATTCCGGTCTCCC
# DNA 2: TGGTGGCTACGACGGGATT
# B25: UGCAGCU (DNA:RNA)
# RNA: B1 RNA with A25U, C26G, U29G, G31U
# DNA 1: CAATCTGAATTCCGGTCTCCC
# DNA 2: TGGTGGCTACGACGGGATT
# B26: UGUCACG (DNA:RNA)
# RNA: B1 RNA with A25U, C26G, C27U, A28C, U29A
# DNA 1: CAATCTGAATTCCGGTCTCCC
# DNA 2: TGGTGGCTACGACGGGATT
# B27: GAGACCG (DNA:RNA)
# RNA: B1 RNA with A25G, C26A, C27G, U29C
# DNA 1: CAATCTGAATTCCGGTCTCCC
# DNA 2: TGGTGGCTACGACGGGATT
# B28: GCGGACA (DNA:RNA)
# RNA: B1 RNA with A25G, C27G, A28G, U29A, G31A
# DNA 1: CAATCTGAATTCCGGTCTCCC
# DNA 2: TGGTGGCTACGACGGGATT
# B29: AUUGUCG (DNA:RNA)
# RNA: B1 RNA with C26U, C27U, A28G
# DNA 1: CAATCTGAATTCCGGTCTCCC
# DNA 2: TGGTGGCTACGACGGGATT
# B30: UACAACC (DNA:RNA)
# RNA: B1 RNA with A25U, C26A, U29A, G31C
# DNA 1: CAATCTGAATTCCGGTCTCCC
# DNA 2: TGGTGGCTACGACGGGATT
# B31: GCGUCCA (DNA:RNA)
# RNA: B1 RNA with A25G, C27G, A28U, U29C, G31A
# DNA 1: CAATCTGAATTCCGGTCTCCC
# DNA 2: TGGTGGCTACGACGGGATT
# Molecular target: T1, RBFOX1 RRM
# Assay: EMSA; HiTS-Eq, 1 nM pool, 10 min; buffer printed only for the single-RNA assays: 10 mM Tris pH 7.5, 150 mM NaCl, 3.4 mM EDTA, 0.001% NP-40, 30 C
# Conditions: tags: His6 N-terminal (pET28a); label: 5' 32P
# Summary of the method: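 Purified wild-type or mutant RbFox RRM at increasing concentrations was equilibrated with 1 nM of 5′-radiolabelled RNA carrying 7 randomized nucleotides for 10 min in 50 µL. Unbound RNA was separated by 8% native PAGE and sequenced. Relative association constants came from read-count changes of each RNA species compared with the control reaction, normalised to the cognate motif.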
row,Binder,binding signal
1,B1,0.00248 KA relative to UGCAUGU
2,B2,0.00575 KA relative to UGCAUGU
3,B3,0.00692 KA relative to UGCAUGU
4,B4,0.00179 KA relative to UGCAUGU
5,B5,0.0104 KA relative to UGCAUGU
6,B6,0.00531 KA relative to UGCAUGU
7,B7,0.00872 KA relative to UGCAUGU
8,B8,0.0103 KA relative to UGCAUGU
9,B9,0.00028 KA relative to UGCAUGU
10,B10,0.00744 KA relative to UGCAUGU
11,B11,0.00986 KA relative to UGCAUGU
12,B12,0.00279 KA relative to UGCAUGU
13,B13,0.0159 KA relative to UGCAUGU
14,B14,0.018 KA relative to UGCAUGU
15,B15,0.00417 KA relative to UGCAUGU
16,B16,0.025 KA relative to UGCAUGU

row,Binder,binding signal
1,B17,0.026 KA relative to UGCAUGU
2,B18,0.0159 KA relative to UGCAUGU
3,B19,0.0125 KA relative to UGCAUGU
4,B20,0.0102 KA relative to UGCAUGU
5,B21,0.00218 KA relative to UGCAUGU
6,B22,0.0141 KA relative to UGCAUGU
7,B23,0.0126 KA relative to UGCAUGU
8,B24,0.00252 KA relative to UGCAUGU
9,B25,0.0159 KA relative to UGCAUGU
10,B26,0.016 KA relative to UGCAUGU
11,B27,0.00974 KA relative to UGCAUGU
12,B28,0.00658 KA relative to UGCAUGU
13,B29,0.0184 KA relative to UGCAUGU
14,B30,0.00313 KA relative to UGCAUGU
15,B31,0.0119 KA relative to UGCAUGU
